# Results as given in PubChem BioAssay AID686979 (National Center for Advancing Translational Sciences (NCATS), 2013).
# Where “and” joins values, the source holds several entries; their conditions need not be identical. Identical values can stand only once. Among all 420,000 compounds or so, about 50,000 (12%) were called active. The inconclusive results got no clear call from the source; some entries with a clear call stand among them for comparison. Calls follow the shape of the dose curve; as a rule, active = well fitted inhibition curve with a large enough effect; inconclusive = small, poorly fitted or top-dose-only effect; inactive = flat fitted curve, though single readings scatter. Where the call is inconclusive, the potency comes from a doubtful curve fit.
# Assay: qHTS for Inhibitors of human tyrosyl-DNA phosphodiesterase 1 (TDP1): qHTS in cells in presence of CPT; also: nearly all actives have a fitted effect of over 55% in size
# Conditions: chicken DT40 Tdp1-/-;hTDP1 cells + 20 nM CPT, ATP luminescence, 48 h; series mostly up to 46.2 µM
# Method in brief: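 Cell growth measured by CellTiter-Glo luminescence after a minimum 48 h, 37 C compound exposure with 20 nM CPT in Tdp1-knockout DT40 cells stably expressing hTDP1, seeded 400/well; qHTS titration format.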
# Potency is read from the fitted curve at half-maximal effect; tags tell the direction and shape of the fitted curve.
row,Compound,Potency
1,O=C(NCC1CCN(Cc2cccc(Cl)c2)CC1)Nc1ccc(F)c(Cl)c1,inactive
2,CC(C)OCCCN1C(=O)c2[nH]nc(-c3ccccc3O)c2C1c1ccccc1F (stereo not given),active: 13 µM
3,COc1cccc(CNC(=O)c2ccc(-n3c(C)cc4c3CCCC4)cc2)c1,inactive
4,Cc1noc(-c2ccccc2OCC(=O)Nc2ccccc2[N+](=O)[O-])n1,"inconclusive: 25.9 µM [inhibitor, single point]"
5,Cc1ccsc1C1C(C#N)=C(N)OC2=C1C(=O)CC(C)(C)C2 (stereo not given),inactive
6,O=C(O)CCc1nn2c3ccccc3n(Cc3ccccc3F)c2nc1=O,"inconclusive: 23.1 µM [inhibitor, single point]"
7,CCCCOc1ccccc1C(=O)N(Cc1sccc1C)C1CCS(=O)(=O)C1 (stereo not given),"inconclusive: 20.6 µM [inhibitor, single point]"
8,CCn1c(=O)cc(SCC(=O)Nc2ccc(OC)c(OC)c2)c2ccccc21,active: 18.4 µM
9,CCN1CCSc2ccc(C(=O)NCc3cccc(Br)c3)cc21,"inconclusive: 29.1 µM [inhibitor, single point] and inconclusive: 16.4 µM [inhibitor, single point]"
10,CCOc1ccc(NC(=O)CSc2c3c(nc4ccccc24)CCCC3)cc1,active: 16.4 µM
11,CCCN(CCC)C(=O)CC(c1ccccc1)c1cc(C)ccc1O (stereo not given),"inconclusive: 29.1 µM [inhibitor, single point]"
12,Cc1cc(Oc2ccccc2)nc(NCc2ccccc2)n1,active: 11.6 µM
13,O=S1(=O)N[C@@H](Cc2ccccc2)COc2cc(N3CCN(Cc4ccccc4F)CC3)ccc21,inactive
14,Cc1cccc(-n2cc(CN3CCN(c4ccccn4)CC3)c(-c3cccc(F)c3)n2)c1,"inconclusive: 18.4 µM [inhibitor, partial curve]"
15,C=CCOc1ccccc1CNn1c(C)n[nH]c1=S,inactive
16,Cc1cccc(NC(=S)NC2CCCC2)n1,"inconclusive: 20.6 µM [inhibitor, single point]"
17,CCCN1C(=O)c2ccccc2NC1c1ccc(OC)c(COc2cccc(OC)c2)c1 (stereo not given),"inconclusive: 20 µM [inhibitor, single point]"
18,Cc1ccc(-c2cn3nc(N4CCCC(C(=O)NCc5ccc(F)cc5)C4)sc3n2)cc1 (stereo not given),"inconclusive: 29.1 µM [inhibitor, single point]"
19,Oc1ccc(Cl)cc1CNCc1cccc2ccccc12,"inconclusive: 18.4 µM [inhibitor, single point]"
20,O=S(=O)(C=C(c1ccccc1)c1ccccc1)c1ccccc1,"inconclusive: 29.1 µM [inhibitor, single point]"
